# Article PMC4336329 (PLoS ONE, 2015)
# In all, about 310,000 compounds went through this assay and about 2,200 (0.71%) showed an effect of 50% or more. The effect is printed as a negative number. This is one part of the list.
# Target: human ether-à-go-go-related gene (hERG) potassium channel (human, UniProt Q12809)
# Test: primary screen, population patch clamp on CHO cells stably expressing hERG
# Chain of human ether-à-go-go-related gene (hERG) potassium channel (Q12809 whole entry, looked up): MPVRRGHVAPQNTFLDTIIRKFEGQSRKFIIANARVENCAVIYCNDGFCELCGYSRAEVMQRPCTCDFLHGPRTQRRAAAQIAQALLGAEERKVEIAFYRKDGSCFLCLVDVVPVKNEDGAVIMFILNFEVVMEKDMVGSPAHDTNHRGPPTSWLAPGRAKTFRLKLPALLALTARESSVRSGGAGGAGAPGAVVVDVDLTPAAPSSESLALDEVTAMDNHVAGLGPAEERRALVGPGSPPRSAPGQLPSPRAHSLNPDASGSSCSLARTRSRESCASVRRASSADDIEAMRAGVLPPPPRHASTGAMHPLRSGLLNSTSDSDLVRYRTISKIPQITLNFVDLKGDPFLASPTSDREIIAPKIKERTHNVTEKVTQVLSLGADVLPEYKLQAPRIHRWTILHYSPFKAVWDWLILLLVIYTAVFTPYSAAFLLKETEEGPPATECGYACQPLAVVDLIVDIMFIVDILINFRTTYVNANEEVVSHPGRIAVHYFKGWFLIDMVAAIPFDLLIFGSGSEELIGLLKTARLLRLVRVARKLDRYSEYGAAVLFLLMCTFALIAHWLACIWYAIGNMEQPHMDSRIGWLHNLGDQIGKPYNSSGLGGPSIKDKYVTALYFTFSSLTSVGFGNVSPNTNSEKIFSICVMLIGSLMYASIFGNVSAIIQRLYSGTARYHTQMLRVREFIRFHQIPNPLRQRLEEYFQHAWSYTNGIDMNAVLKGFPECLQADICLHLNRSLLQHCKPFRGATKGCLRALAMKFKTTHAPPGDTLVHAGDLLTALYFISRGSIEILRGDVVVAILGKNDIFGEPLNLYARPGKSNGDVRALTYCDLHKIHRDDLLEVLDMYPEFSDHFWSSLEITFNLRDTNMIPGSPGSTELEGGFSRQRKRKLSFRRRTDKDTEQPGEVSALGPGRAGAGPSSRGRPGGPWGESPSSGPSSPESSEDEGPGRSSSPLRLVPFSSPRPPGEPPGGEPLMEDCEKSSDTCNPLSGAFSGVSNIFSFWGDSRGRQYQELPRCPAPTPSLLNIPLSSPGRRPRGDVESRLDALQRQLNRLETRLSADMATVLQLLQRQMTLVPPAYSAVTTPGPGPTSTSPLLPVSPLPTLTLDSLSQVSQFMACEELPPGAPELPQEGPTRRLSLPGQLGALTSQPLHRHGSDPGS
row,Compound,"hERG current change (%, negative = inhibition) at 1uM [%]"
1,COc1ccccc1C(=O)Nc1nnc(S(=O)(=O)N2CCN(c3ccc(F)cc3)CC2)s1,16
2,CC1=CC2=NC(=O)/C(=C\c3cc(C)n(-c4ccccc4)c3C)C(=N)N2O1,11.9
3,CC1CCN(CCCNC(=O)CCc2nnc3n(CCc4ccccc4)c(=O)c4ccccc4n23)CC1,-52.4
4,O=C(NCCc1ccccc1)C1CCN(C(=O)c2ccc(F)cc2)CC1,13.3
5,CC(=O)Nc1ccc(S(=O)(=O)N2CCOCC2)cc1,-0.964
6,CCN(CC)CCNC(=O)c1cc([N+](=O)[O-])c(N(C)C)cc1OC.Cl,5.46
7,CSc1nc(-c2ccccc2)nc(SC)c1C(C)=O,18
8,O=C(c1ccccc1)N1CCC2(CC1)OCCO2,8.32
9,COc1ccccc1/C(C)=N/NC(=S)NCc1ccccc1,0.32
10,COC(=O)c1ccc(/C=N/NC(=O)C2CC(=O)N(c3ccc(OC)cc3)C2)cc1 (stereo not shown),-10.3
11,CC(NS(=O)(=O)c1ccc(NC(=O)N2CCCCC2)cc1)c1ccccc1 (stereo not shown),4.77
12,COc1cc2c(cc1OC)CN(C(=O)c1cc(S(=O)(=O)N3CCCCC3)ccc1Cl)CC2,8.25
13,C=C[C@@H](C)N(Cc1ccc(OC)cc1)S(=O)(=O)N(Cc1ccccc1)[C@H](C=C)C(C)C,9.23
14,CC(C)c1ccc(NC2CCCN(C(=O)CN3C(=O)CSC3=O)C2)cc1 (stereo not shown),32.2
15,Cn1c(N)c(C(=O)COC(=O)c2cc(-c3ccccc3)nc3ccccc23)c(=O)n(C)c1=O,9.8
16,CCCc1cc(=O)oc2c(CN3CCCC3)c(O)c(Cl)cc12,-14.7
17,CC1CCCN(C(=S)Nc2ccc(F)cc2)C1 (stereo not shown),12.2
18,N#CCSc1nc2cc(C(=O)N3CCCC3)ccc2c(=O)n1Cc1ccccc1,14.7
19,COC(=O)c1ccc(C2/C(=C(/O)c3ccc(OC)cc3)C(=O)C(=O)N2Cc2ccco2)cc1 (stereo not shown),12.4
20,Cc1nc2sc3c(c2c(=O)o1)CC(C)(C)OC3,14.1
21,O=C(NCc1ccco1)C1CC(c2cc(C(F)(F)F)cc(C(F)(F)F)c2)=NO1 (stereo not shown),11.4
22,CC(C)NC[C@H](O)COc1cccc2[nH]ccc12,7.69
23,CC(C)Oc1ccc(CCC(=O)NNC(=O)c2ccccc2C(=O)O)cc1,20.5
24,Cc1ccc(C)c(N(CC(=O)NCc2ccco2)C(=O)CNS(=O)(=O)c2ccc(F)cc2)c1,5.39
25,Cc1cccc(C(=O)NCC(=O)N2CCN(S(=O)(=O)c3ccccc3)CC2)c1,7.61
26,CC(C)[C@H](NC(=O)c1ccco1)C(=O)OCC(=O)N1CCc2ccccc21,2.01
27,O=C(O)c1ccc(CS(=O)(=O)c2c(Cl)cccc2Cl)o1,15.4
28,Cn1c(=O)n(C)c2cc([N+](=O)[O-])c(N3CCN(CCO)CC3)cc21,9.04

row,Compound,"hERG current change (%, negative = inhibition) at 1uM [%]"
1,CC(=O)NCCc1nc2ccccc2n1Cc1ccccc1,9.65
2,CCOc1ccc(S(=O)(=O)N(CC(N)=O)c2ccc(C)cc2)cc1,4.63
3,CS(=O)(=O)c1ccc(C(=O)OCC(=O)NC2CCS(=O)(=O)C2)cc1[N+](=O)[O-] (stereo not shown),7.69
4,CCSc1nnc(NC(=O)c2ccccc2)s1,-0.488
5,Cc1ccc(NC(=S)Nc2ccc3cn[nH]c3c2)c(C)c1,-9.39
6,Cn1c(=O)c2c(nc(CN3CCN(c4ccccc4)CC3)n2CCN2CCOCC2)n(C)c1=O,-11.1
7,O=C(NCc1cccc(Br)c1)C1CC(c2ccc(C(F)(F)F)cc2)=NO1 (stereo not shown),8.65
8,CC(C)NC(=O)c1cc(-c2cccs2)on1,3.47
9,CCOc1cc(S(=O)(=O)NCc2ccc(OC)cc2)c(OCC)cc1-n1cnnn1,2.34
10,COc1ccc(OC)c(/C=N/N(CCC#N)C2=NS(=O)(=O)c3ccccc32)c1,9.43
11,CC1CC1C(=O)OCC(=O)NNC(=O)c1ccc([N+](=O)[O-])cc1 (stereo not shown),13.6
12,N#Cc1cc2ccccc2nc1SCc1ccccn1,3.8
13,COc1cc(OC)cc(C(=O)Nc2ccc(S(=O)(=O)N3CCOCC3)cc2)c1,12.7
14,CCCn1nc(C(=O)Nc2cccc(C(=O)OC)c2)c2ccccc2c1=O,14.5
15,Cc1ccc(C(=O)NN2C(=O)/C(=C/c3cn(C)c4ccccc34)SC2=S)cc1,10.4
16,Cc1ccc(OCC(=O)Oc2c(C)cccc2C)cc1,12.3
17,COc1ccc(-c2ccc3ccccc3n2)cc1OC,9.24
18,COC(=O)COc1ccc(S(=O)(=O)N2CCc3ccccc3C2)cc1C,10.9
19,Cl.Clc1ccc(-c2ccc(CNCC3CCCO3)o2)cc1 (stereo not shown),4.36
20,CSc1cccc(CN2CCC(n3nccc3NC(=O)C3CC3)CC2)c1,-18.7
21,CCCCCCn1c(N2CCN(c3cccc(Cl)c3)CC2)nc2c1c(=O)[nH]c(=O)n2C,11.6
22,COc1cccc(-c2c(C(=O)N/N=C/c3ccc(C)s3)nnn2-c2nonc2N)c1,3.27
23,CN(CC(=O)N1CCN(c2ccccc2F)CC1)S(=O)(=O)c1cnc[nH]1,5.05
24,COCCN(C(=O)COC(=O)CCC(=O)c1ccc(Cl)cc1)c1c(N)n(Cc2ccccc2)c(=O)[nH]c1=O,9.48
25,CC(=O)c1cccc(NC(=O)CSc2ccc(-c3ccco3)nn2)c1,11.7
26,Br.c1ccc(CN2CCC(N=C3NN=C(c4ccc5c(c4)OCCO5)CS3)CC2)cc1,5.2
27,Oc1cc2c(cc1O)CN(C(=S)NCCc1ccc(Cl)cc1)CCC2,3.97
